The list shows a part of the results.

The source of these data is a collection of fitness landscapes (doi:10.1126/science.1257360).

B1: PhoQ; a variant is named by its letters at X, in order, P23837 (parent)
chain: MKKLLRLFFPLSLRVRFLLATAAVVLVLSLAYGMVALIGYSVSFDKTTFRLLRGESNLFYTLAKWENNKLHVELPENIDKQSPTMTLIYDENGQLLWAQRDVPWLMKMIQPDWLKSNGFHEIEADVNDTSLLLSGDHSIQQQLQEVREDDDDAEMTHSVAVNVYPATSRMPKLTIVVVDTIPVELKSSYMVWSWFIYVLSANLLLVIPLLWVAAWWSLRPIEALAKEVRELEEHNRELLNPATTRELTSLVRNLNRLLKSERERYDKYRTTLTDLTHSLKTPLXXLQXXLRSLRSEKMSVSDAEPVMLEQISRISQQIGYYLHRASMRGGTLLSRELHPVAPLLDNLTSALNKVYQRKGVNISLDISPEISFVGEQNDFVEVMGNVLDNACKYCLEFVEISARQTDEHLYIVVEDDGPGIPLSKREVIFDRGQRVDTLRPGQGVGLAVAREITEQYEGKIVAGESMLGGARMEVIFGRQHSAPKDE

This experiment covers variants of B1. In words: enrichment ratio after two sorts for PhoP signalling (ratio (wild type AVST 3.29)); higher = more functional. Conditions: with PhoP (E. coli).
Consider VSDD, for which the enrichment ratio is not above 0.25.
With HPSK, the enrichment ratio is not above 0.25.
For DKHY the value was not above 0.25; for TYHT, not above 0.25.
In the case of PPIM, the enrichment ratio is not above 0.25.
For DVQP the value was not above 0.25; for KTVK, not above 0.25.
Take YEPW: the enrichment ratio is not above 0.25.
As for SLTY, the figure is 3.17.
DQNM: the enrichment ratio was not above 0.25.
For GMNT the value was not above 0.25; for LACD, not above 0.25; for HKLC, not above 0.25.
For DMIH the value was not above 0.25; for GSWV, not above 0.25; for VCAR, not above 0.25.
As to PHPN, the enrichment ratio is not above 0.25.
As for PYED, the figure is not above 0.25.
For FYAQ the value was not above 0.25.
For WAVK, the enrichment ratio was not above 0.25.
On to FRRR, for which the enrichment ratio was not above 0.25.
As for TGAW, the enrichment ratio is not above 0.25.
On to QPKW, for which the enrichment ratio is not above 0.25.
As for KWHR, the figure is not above 0.25; as for TQWL, 7.95; as for AGFY, not above 0.25.
Regarding QMIN, the enrichment ratio was not above 0.25.
As for WYMV, the figure is not above 0.25.
For FFTF the value was not above 0.25; for TLET, not above 0.25.
On to ANKA, for which the enrichment ratio is not above 0.25.
Take VQEE: the enrichment ratio was not above 0.25.
With VVAI, the enrichment ratio was not above 0.25.
On to NTRE, for which the enrichment ratio was not above 0.25.
In the case of TKYA, the enrichment ratio is not above 0.25.
As for YMFV, the figure is not above 0.25.
For NIKS the value was not above 0.25; for EVHQ, not above 0.25; for FDKE, not above 0.25.
For HPLE the value was not above 0.25; for GLVC, 2.33; for VPRH, not above 0.25.
With HFTT, the enrichment ratio is not above 0.25.
Consider VNKV, for which the enrichment ratio was not above 0.25.
As for LCRC, the figure is not above 0.25; as for DSTH, not above 0.25.
For YGER the value was not above 0.25; for RGTY, not above 0.25.
As to FEHR, the enrichment ratio is not above 0.25.
With ANAG, the enrichment ratio came to 0.473.
For DKPV, the enrichment ratio is not above 0.25.
As to FVSQ, the enrichment ratio was not above 0.25.
Turning to NRPM, the enrichment ratio is not above 0.25.
For SQQF the value was not above 0.25; for RLTE, not above 0.25; for VTNI, not above 0.25.
For DNNC the value was not above 0.25; for FAEG, not above 0.25; for HVAY, not above 0.25.
For WCYV the value was not above 0.25; for YARG, not above 0.25; for SMFA, not above 0.25.
For HFPW, the enrichment ratio is not above 0.25.
Turning to TSSH, the enrichment ratio was found to be 11.3.
As for SFSH, the figure is not above 0.25; as for ILME, not above 0.25.
As for NLSN, the figure is not above 0.25.
As for IYDD, the figure is not above 0.25.
With EMMN, the enrichment ratio is not above 0.25.
For ASCK the value was 22.8; for HISA, not above 0.25; for KVSY, not above 0.25.
As for PGNE, the figure is not above 0.25; as for RKIN, not above 0.25; as for NNDN, not above 0.25.
Consider KHMS, for which the enrichment ratio was not above 0.25.
For SKSW the value was not above 0.25.
For HHLE the value was not above 0.25.
As for NIRC, the figure is not above 0.25.
Consider ELCC, for which the enrichment ratio is not above 0.25.
For PHYI the value was not above 0.25.
For FNLP the value was not above 0.25; for QVPC, not above 0.25; for TTAA, 9.33.
As for DEKC, the enrichment ratio is not above 0.25.
For IFAW the value was not above 0.25; for TYGT, not above 0.25.
As for GFCC, the figure is not above 0.25; as for QIHM, not above 0.25; as for NMKY, not above 0.25.
For MTDY the value was not above 0.25; for YILF, not above 0.25; for IICP, not above 0.25.
In the case of RQTH, the enrichment ratio is not above 0.25.
For PINH the value was not above 0.25; for GKFT, not above 0.25; for VQTE, not above 0.25.
As for FLQI, the figure is not above 0.25; as for FVMD, not above 0.25.
For TESI, the enrichment ratio stood at 13.5.
For QCQK the value was not above 0.25.
As for AALD, the figure is 0.316; as for YPDV, not above 0.25.
For VYHN the value was not above 0.25; for INRG, not above 0.25.
With ERCT, the enrichment ratio is not above 0.25.
As for LKLY, the enrichment ratio is not above 0.25.
As for AHRW, the figure is not above 0.25.
As for MHGN, the figure is not above 0.25; as for HDYA, not above 0.25.
As for TQVK, the figure is not above 0.25.
Consider FASY, for which the enrichment ratio is not above 0.25.
For MVRT the value was not above 0.25; for FQSC, not above 0.25.
For KYWL the value was not above 0.25; for GMYN, not above 0.25; for YNVC, not above 0.25.
As for PKLG, the figure is not above 0.25; as for EYAI, not above 0.25; as for YLGI, not above 0.25.
In the case of THHG, the enrichment ratio is not above 0.25.
As for AQPQ, the figure is not above 0.25; as for SDFV, not above 0.25.
For DASW the value was not above 0.25; for KYVW, not above 0.25.
As for GFMV, the figure is not above 0.25.
Take QCRT: the enrichment ratio is not above 0.25.
As for QCDY, the figure is 10.3; as for EQHR, not above 0.25.
As for PIFL, the figure is not above 0.25; as for YSER, not above 0.25.
For TAGH the value was 9.91.
For FGNL, the enrichment ratio is not above 0.25.
For TNIA the value was not above 0.25; for KYVM, not above 0.25; for IELS, 2.67.
For MAEI the value was not above 0.25; for YGVT, 0.549; for HGEP, not above 0.25.
For SSDI the value was not above 0.25; for MQHA, not above 0.25.
For the variant IWVR, the enrichment ratio is not above 0.25.
As for TFRT, the figure is not above 0.25.
As for HWPM, the figure is not above 0.25.
As for KFWW, the enrichment ratio is not above 0.25.
As for TQGM, the figure is 14.5.
For QPRF the value was not above 0.25; for AFLK, 1; for KELH, not above 0.25.
With RDIK, the enrichment ratio was not above 0.25.
As for YSWC, the figure is not above 0.25; as for GVKR, not above 0.25.
Regarding CRPF, the enrichment ratio is not above 0.25.
For the variant SVCE, the enrichment ratio was 2.84.
For ETIG the value was not above 0.25; for HPYP, not above 0.25; for AFYT, not above 0.25.
As for HIYQ, the enrichment ratio was not above 0.25.
For FPHW the value was not above 0.25; for MYIP, not above 0.25.
As for MKMA, the figure is not above 0.25; as for IFYQ, not above 0.25; as for GLKK, not above 0.25.
As for NDKI, the figure is not above 0.25.
With RFFY, the enrichment ratio was not above 0.25.
DRQS: the enrichment ratio was not above 0.25.
For MTRL the value was not above 0.25; for PQTT, not above 0.25.
Take MYAY: the enrichment ratio was not above 0.25.
As for YASP, the figure is not above 0.25; as for KLAQ, not above 0.25.
For YLWD the value was not above 0.25; for YRWT, not above 0.25; for YHKQ, not above 0.25.
As to PKDR, the enrichment ratio is not above 0.25.
For ADWK the value was not above 0.25; for LCGD, not above 0.25.
For VAQY the value was not above 0.25.
For TCWR the value was not above 0.25; for VIPM, not above 0.25; for LSWA, not above 0.25.
DDFP: the enrichment ratio is not above 0.25.
As for GGNR, the figure is not above 0.25; as for LPLA, 0.507.
For RPHS the value was not above 0.25; for IFFM, not above 0.25.
As for EMEA, the figure is not above 0.25; as for PDNY, not above 0.25.
For HART, the enrichment ratio is not above 0.25.
As for KAQE, the figure is not above 0.25.
For KDGR the value was not above 0.25; for WTWI, not above 0.25.
As for FRGR, the figure is not above 0.25.
Take YMSF: the enrichment ratio was not above 0.25.
As for QRVL, the figure is not above 0.25; as for LCRI, not above 0.25.
As for NIAP, the figure is not above 0.25; as for FQQV, not above 0.25.
Regarding LFLV, the enrichment ratio is not above 0.25.
For GCFV the value was not above 0.25; for KFPA, not above 0.25.
For SDNP the value was not above 0.25; for IGTF, not above 0.25.
For PSNP the value was not above 0.25; for GCAM, 7.42; for QVLE, not above 0.25.
Regarding RWLY, the enrichment ratio was not above 0.25.
For WHCA the value was not above 0.25; for GMTQ, not above 0.25; for GDLY, not above 0.25.
LFTM: the enrichment ratio is not above 0.25.
As for MMWC, the figure is not above 0.25.
As for FNDS, the figure is 1.51.
For LVSM the value was not above 0.25.
In the case of PMVK, the enrichment ratio was not above 0.25.
For SGPD the value was not above 0.25; for YNST, 0.345; for TFGR, not above 0.25.
As for AHHH, the figure is not above 0.25; as for FGDH, not above 0.25.
For DNSF the value was not above 0.25; for APTH, not above 0.25.
NNFC: the enrichment ratio was not above 0.25.
As for AKRT, the figure is not above 0.25; as for KDCW, not above 0.25; as for ISKT, 0.48.
For MYMS the value was not above 0.25.
For NMVD the value was not above 0.25; for NQEC, not above 0.25.
Turning to FNWR, the enrichment ratio is not above 0.25.
Take RMLN: the enrichment ratio is not above 0.25.
For NDLQ the value was not above 0.25; for SPYD, not above 0.25.
For LEYR the value was not above 0.25; for RHGD, not above 0.25.
For FPFS the value was not above 0.25; for ADDW, not above 0.25; for FEIH, not above 0.25.
As to TDHI, the enrichment ratio was not above 0.25.
Regarding QFAM, the enrichment ratio is not above 0.25.
For NHQP the value was not above 0.25; for GIGY, 3.68; for DFWM, not above 0.25.
As for AEFQ, the figure is 3.73; as for VWWW, not above 0.25; as for DPHY, not above 0.25.
As for LLRD, the figure is not above 0.25; as for ASAI, 13.2.
For YPLI, the enrichment ratio is not above 0.25.
For FIRE the value was not above 0.25; for DAIN, not above 0.25; for YRMI, not above 0.25.
As for MLCR, the figure is not above 0.25.
On to VKAD, for which the enrichment ratio was not above 0.25.
Consider CFFH, for which the enrichment ratio was not above 0.25.
As for FRFK, the enrichment ratio is not above 0.25.
For HLRI the value was not above 0.25; for STWY, not above 0.25; for AYYR, not above 0.25.
For MLAL the value was 7.89.
Turning to PHFF, the enrichment ratio was not above 0.25.
For TASF the value was 8.94; for WIKH, not above 0.25; for RWYC, not above 0.25.
For TPVK the value was not above 0.25; for HLSG, not above 0.25.
As to DSKW, the enrichment ratio was not above 0.25.
For the variant MCCR, the enrichment ratio is not above 0.25.
As for TMCC, the figure is 10.7.
For WFMH the value was not above 0.25; for MQEN, not above 0.25.
For the variant NYDF, the enrichment ratio was not above 0.25.
For SYYE the value was not above 0.25; for WSSW, not above 0.25; for QPNC, not above 0.25.
For DIHN the value was not above 0.25; for PAKH, not above 0.25; for WGTE, not above 0.25.
For QWSR, the enrichment ratio is not above 0.25.
On to QDHY, for which the enrichment ratio is not above 0.25.
As to MSVF, the enrichment ratio worked out at 0.464.
In the case of LTEY, the enrichment ratio was not above 0.25.
As for PQQE, the figure is not above 0.25.
As for IKLL, the figure is not above 0.25; as for KYEA, not above 0.25.
As for NRRQ, the figure is not above 0.25; as for MQYF, not above 0.25; as for PGCY, not above 0.25.
Consider GDQY, for which the enrichment ratio was not above 0.25.
For EMCL, the enrichment ratio is not above 0.25.
For KSMR the value was not above 0.25; for QLLP, not above 0.25.
For SLPF the value was not above 0.25; for KSKS, not above 0.25.
For RSDG the value was not above 0.25; for QRMK, not above 0.25.
For the variant LVAD, the enrichment ratio was not above 0.25.
For FCET the value was not above 0.25.
As for ITQF, the enrichment ratio was not above 0.25.
For ASTT the value was 6.42; for TAWT, 6.5; for NLKT, not above 0.25.
For QQPC the value was not above 0.25; for YQIP, not above 0.25.
As for NFDG, the figure is not above 0.25.
Turning to TLGQ, the enrichment ratio was determined as 7.94.
